Results: PubChem BioAssay AID1434 (Sanford-Burnham Center for Chemical Genomics, 2008)
This is one part of the list. Shown are side measurements of this screen, not its main read-out; they come without a call. The list favours compounds with an active or inconclusive main result.

The compounds below were run against Runt-related transcription factor 1 (Homo sapiens) + Core-binding factor subunit beta (Homo sapiens) (UniProt Q01196+Q13951) (assay: disruptors of Runt domain/CBFb-SMMHC interaction – biochemical, FRET, Cerulean-Runt, Venus-CBFb-SMMHC, uHTS, primary screen (AID 1434;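 note: 0% = DMSO wells and 100% = wells with excess untagged CBFb-SMMHC; inhibitors lower the FRET ratio by blocking Runt binding to CBFb-SMMHC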)). Details: Cerulean-Runt/Venus-CBFb-SMMHC FRET ratio 530/480, 1 h; retest duplicate average; at 20 µM; stronger effect = higher value.
Sequence of UniProt Q01196 (Q01196 whole entry, looked up, the tested form may be a part): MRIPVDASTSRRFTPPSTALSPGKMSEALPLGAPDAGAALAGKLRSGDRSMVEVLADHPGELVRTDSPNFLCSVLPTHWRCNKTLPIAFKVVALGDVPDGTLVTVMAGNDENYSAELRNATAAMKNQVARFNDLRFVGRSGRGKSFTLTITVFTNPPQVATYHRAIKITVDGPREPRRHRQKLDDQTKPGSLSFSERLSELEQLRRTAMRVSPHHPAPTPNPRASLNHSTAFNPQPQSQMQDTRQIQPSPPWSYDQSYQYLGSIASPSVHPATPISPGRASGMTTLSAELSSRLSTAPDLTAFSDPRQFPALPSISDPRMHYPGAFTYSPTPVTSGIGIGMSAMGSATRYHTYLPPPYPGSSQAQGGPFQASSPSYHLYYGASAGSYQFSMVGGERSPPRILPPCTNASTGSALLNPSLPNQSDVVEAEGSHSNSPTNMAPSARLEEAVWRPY
Sequence of UniProt Q01196 (Q13951 whole entry, looked up, the tested form may be a part): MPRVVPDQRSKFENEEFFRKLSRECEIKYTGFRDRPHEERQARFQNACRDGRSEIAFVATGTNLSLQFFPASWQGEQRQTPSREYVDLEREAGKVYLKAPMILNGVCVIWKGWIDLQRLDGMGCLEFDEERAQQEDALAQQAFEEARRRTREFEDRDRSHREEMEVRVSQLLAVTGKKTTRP

Row | SMILES | inhibition [%]
1 | N#Cc1c(-c2cccc(Br)c2)cc(-c2ccco2)[nH]c1=O | 112
2 | CC1(C)N([O-])c2cc([N+](=O)[O-])ccc2[N+]1=O | 87.2
3 | CC(=O)N(C1=C(Cl)C(=O)c2ccccc2C1=O)C1CCCCC1 | 64.2
4 | CC(C)OC(=O)c1c(N)n(CCCN2CCOCC2)c2nc3ccccc3nc12 | 129
5 | O=[N+]([O-])c1cccc(N=Cc2sc3ccccc3c2O)c1 | 78.1
6 | CCCN1CCc2c(sc(NC(=S)NC(=O)c3ccccc3)c2C#N)C1 | 70.6
7 | Cc1cccn2c(=O)c3cc(C#N)c(=NC(=O)c4cccs4)n(CCCOC(C)C)c3nc12 | 70.6
8 | CCOC(=O)C1=C(Cc2ccc(C)cc2)C(=O)c2ccccc2C1=O | 55.2
9 | Cc1nc2c([nH]1)C1(CCN(Cc3ccccc3)CC1)C(C#N)=C(N)O2 | 85.9
10 | CCOCCCNC(=S)NCCCNc1nc2c(C)cc(C)cc2cc1C#N | 86.3
11 | CCCn1c(=NC(=O)c2ccco2)c(C(=O)OCC)cc2c(=O)n3ccccc3nc21 | 72.9
12 | Cc1ccc(S(=O)(=O)c2cc(C#N)c(=O)[nH]c2N)cc1 | 112
13 | CN1CCc2nc(NC(=O)c3cccc(S(=O)(=O)N4CCc5ccccc54)c3)sc2C1 | 93.1
14 | Cc1cccc(-n2c3nc(=O)[nH]c(=O)c-3cc3cc([N+](=O)[O-])ccc32)c1 | 53.2
15 | COCCCNC(=O)c1cc2c(=O)n3cccc(C)c3nc2n(C(C)C)c1=N | 72.9
16 | CC(=O)c1cc2cc(O)ccc2o1 | 83.4
17 | CCCCN1C=C(C(=O)OC)C(c2ccccc2Cl)C(C(=O)OC)=C1 | 70.6
18 | Cc1c(Cl)c(=O)n2c(=O)c(Cl)c(C)n12 | 70.6
19 | CC(C)Cn1nc(NC(=O)c2cccs2)c2cc3ccccc3nc21 | 66.2
20 | CCCCn1c2nc3ccccc3nc2c2c(=N)oc(C)nc21 | 93.9
21 | CN1CCc2c(sc3c2C(=O)NC(/C=C\c2ccccc2)N3)C1 (configuration not stated) | 124
22 | O=c1nc(/C=C/c2ccc(-c3ccc(F)cc3)o2)cc(C(F)(F)F)[nH]1 | 72.9

Row | SMILES | inhibition [%]
23 | CCN(CC)c1ccc2cc(C(N)=O)c(=O)oc2c1 | 71.5
24 | COc1ccc2nc(N3CCCC3)c(C#N)cc2c1 | 72.9
25 | CN(C)S(=O)(=O)c1cccc(NC(=S)N/N=C/c2cc(Br)ccc2O)c1 | 54.2
26 | Nc1cccc2c1C(=O)N(Cc1cccc(Cl)c1)C2=O | 70.6
27 | COc1ccc2nc3ccccc3nc2c1 | 56.5
28 | Cc1cc(C)c2nc(NCCCNC(=S)NCCCN(C)C)c(C#N)cc2c1 | 70.6
29 | C(=C\c1nccc2c1[nH]c1ccccc12)/c1ccccc1 | 90.1
30 | COc1nc(N)c(S(=O)(=O)c2ccccc2C)cc1C#N | 92.3
31 | COc1c(O)c(O)c2oc(-c3ccccc3)cc(=O)c2c1OC | 56.7
32 | COc1ccc(C2OC34CCCCC3C(C#N)(C#N)C2(C#N)C(=N)O4)cc1 (configuration not stated) | 74.9
33 | Cc1cccn2c(=O)c3cc(C(=O)NC(C)C)c(=N)n(Cc4ccncc4)c3nc12 | 72.9
34 | CCOC(=O)c1c(N)n(C2CC(C)(C)NC(C)(C)C2)c2nc3ccccc3nc12 | 108
35 | COCCNc1cc(C)nc2c3c(C)cc(C)nc3nn12 | 77.3
36 | CCCCn1c(=NC(=O)c2cccnc2)c(C#N)cc2c(=O)n3cccc(C)c3nc21 | 72.9
37 | O=C(O)c1ccc(N/N=C/c2ccc(-c3cccc(Cl)c3)o2)cc1 | 103
38 | COc1ccc(OC)c(C2C(C(=O)Nc3nc4ccccc4s3)=C(C)NC3=C2C(=O)CCC3)c1 (configuration not stated) | 81.7
39 | Cc1c(O)c(CN2CCCCC2)cc2c3c(c(=O)oc12)CCC3 | 146
40 | CN1/C(=C\C(=O)c2cccs2)Sc2ccccc21 | 96.3
41 | CCn1cc(C2C3=C(CC(C)(C)CC3=O)N(c3ccccc3)C3=C2C(=O)CC(C)(C)C3)c(C)n1 | 81
42 | Nc1ccc2c(C(F)(F)F)cc(=O)oc2c1 | 72.9
43 | CCN1C=CC2=C(C#N)C(N)C(C#N)(C#N)C(c3ccccc3C(F)(F)F)C2C1 (configuration not stated) | 71.5
44 | COc1ccc2ccccc2c1C(O)c1nccn1C (configuration not stated) | 116

Row | SMILES | inhibition [%]
45 | N#Cc1c(N)sc2c1CCN(CCc1ccccc1)C2 | 137
46 | NC(=O)c1cc2ccc(O)cc2oc1=Nc1ccccc1 | 72.9
47 | Cc1cc(=O)oc2cc(OC(=O)c3cncc(Br)c3)ccc12 | 54.2
48 | Cc1ccc(S(=O)(=O)NCCC(=O)Oc2ccc3ccc(=O)oc3c2)cc1 | 67.2
49 | Cc1cccc(Oc2nc3ccccn3c(=O)c2/C=C(\C#N)C(=O)NC2CCS(=O)(=O)C2)c1 (configuration not stated) | 71.5
50 | CCCn1c(C)nc2c(c1=O)c1nc3ccccc3nc1n2CCC1=CCCCC1 | 82.7
51 | CCc1nc2sc(C(C)=O)c(N)c2c2c1CCCC2 | 122
52 | COC(=O)c1scc2c(=O)cc(C(F)(F)F)[nH]c12 | 70.6
53 | Cc1c(O)ccc2c(CN3CCN(C/C=C/c4ccccc4)CC3)cc(=O)oc12 | 70.6
54 | COCCN1C=C(C(=O)OC)C(c2ccc(Cl)cc2)C(C(=O)OC)=C1 | 164
55 | Cc1ccc(S(=O)(=O)c2cc3c(=O)n4cccc(C)c4nc3n(CC3CCCO3)c2=N)cc1C (configuration not stated) | 132
56 | Cc1cc(C)c2c(N)c(C(=O)Nc3ncc(C)s3)sc2n1 | 96.7
57 | Cc1nc2nc(-c3ccccc3)cn2nc1C | 71.5
58 | CCOC(=O)c1cc2c(=O)n3ccccc3nc2n(CC(C)C)c1=NC(=O)c1ccco1 | 71.5
59 | CCCCN(CC)Cc1c(O)ccc2c3c(c(=O)oc12)CCC3 | 88.5
60 | CCN1C(=O)/C(=C/C=C2/CCCN2C)OC1=S | 110
61 | CCN1C=C(C(=O)OC)C(c2cccc(OC)c2OC)C(C(=O)OC)=C1 | 70.6
62 | CCN(CC)CCN1C2=C(C(=O)CC(C)(C)C2)C(c2cccc(F)c2)C2=C1CC(C)(C)CC2=O | 71.6
63 | Cc1ccsc1C1NC(=O)c2c(sc3c2CCN(C)C3)N1 (configuration not stated) | 114
64 | COc1cc2ccc(=O)oc2c(O)c1OCC=C(C)C | 72.9
65 | Cc1ccc(C(=O)/C=C\C(=O)c2ccc(C)cc2)cc1 | 54.8
66 | COc1cc(-c2nc3ccccc3s2)ccc1O | 150

Row | SMILES | inhibition [%]
67 | Cc1cc(C)c2c(N)c(C(=O)C(C)(C)C)sc2n1 | 116
68 | COc1ccc(N=Cc2c(O)n(-c3ccc(OC)cc3)c(=O)c3ccccc23)cc1 | 70.6
69 | COc1ccc(-c2cc(-c3nnc(-c4ccncc4)o3)c3ccccc3n2)cc1 | 59.4
70 | CN1CCc2nc(NC(=O)c3cccc(OC(F)F)c3)sc2C1 | 77.3
71 | Cc1cccn2c(=O)c3cc(C(=O)NCc4cccnc4)c(=N)n(C)c3nc12 | 159
72 | COCCCNC(=S)NCCNc1nc2c(C)c(C)ccc2cc1C#N | 75.8
73 | CCn1nc(NC(=O)C2CCCO2)c2cc3cccc(C)c3nc21 (configuration not stated) | 83.8
74 | CCOC(=O)C(C)c1c(C(=O)c2ccc(C)nc2)c2ccccc2n1C (configuration not stated) | 73.9
75 | COc1ccc(-n2c(O)c(C=Nc3ccccc3)c3ccccc3c2=O)cc1 | 66.1
76 | O=C(Cc1cn2ccsc2n1)Nc1nc2c(s1)CN(Cc1ccccc1)CC2 | 108
77 | COCCn1c(=NC(=O)c2ccc3c(c2)OCO3)c(C#N)cc2c(=O)n3cccc(C)c3nc21 | 166
78 | COCCn1c(=N)c(C(=O)NCCc2ccc(OC)cc2)cc2c(=O)n3cccc(C)c3nc21 | 170
79 | CCOC(=O)c1cc2c(=O)n3ccccc3nc2n(CC2CCCO2)c1=NC(C)=O (configuration not stated) | 72.9
80 | CCOCCCn1c(=N)c(C(N)=S)cc2c(=O)n3cccc(C)c3nc21 | 71.5
81 | CCC12OC(=N)C(C#N)(C1C)C(C#N)(C#N)C(c1ccccc1)O2 (configuration not stated) | 110
82 | CCOC(=O)N1CCC(NC(=O)c2ccc3c(c2)N(C)CCS3)CC1 | 49.1
83 | Cc1cc(=O)oc2c(CN3CCC(C)CC3)c(O)c(Cl)cc12 | 141
84 | Cc1ccc(CNC(=O)/C(C#N)=C\c2ccc(N(C)C)cc2)cc1 | 72.7
85 | O=c1[nH]c(N/N=C/c2ccccc2)nc2ccccc12 | 61.1
86 | CCN(CC)CCNc1c2c(c(C#N)c3nc4ccccc4n13)CCCC2 | 64.1
87 | O=c1c2ccccc2sn1-c1ccccc1 | 56.1
88 | Cc1cc(C)c[n+](-c2nc3ccccc3nc2[N-]S(=O)(=O)c2ccc(Br)s2)c1 | 86.4

Row | SMILES | inhibition [%]
89 | O=C(Cn1c2ccccc2c(=O)c2ccccc21)Nc1cccc(F)c1 | 100
90 | Cc1c(OC(=O)CNC(=O)OC(C)(C)C)ccc2c3c(c(=O)oc12)CCC3 | 89.3
91 | CC1CCCCC1NC(=O)CN1C(=O)c2cccc(N)c2C1=O (configuration not stated) | 70.6
92 | CCCCCCc1cc2cc(S(=O)(=O)c3ccc(Cl)cc3)c(=O)oc2cc1O | 71.5
93 | Oc1c(C=NCc2ccncc2)sc2ccccc12 | 63.6
94 | CCCCCCc1cc2cc(C(=O)Nc3ccccc3OC)c(=O)oc2cc1O | 77.3
95 | NC(=O)c1ccc(Oc2cccc3cccnc23)c([N+](=O)[O-])c1 | 118
96 | CCOC(=O)C1=C(CSc2nc3c(cc2C#N)CN(C)CC3)OC(N)=C(C#N)C1c1ccc(F)cc1 (configuration not stated) | 61.6
97 | CCc1c(C)c2cc(Cl)c(O)c(CN(CC)CC)c2oc1=O | 173
98 | CCn1c(O)c(/C=N/NC(=O)c2ccncc2)c(=O)n(CC)c1=S | 71.5
99 | S=c1[nH]nc(-c2cc3c(s2)-c2ccccc2CC3)o1 | 108
100 | N#Cc1c2c(c(Nc3ccccc3)n3c1nc1ccccc13)CCC2 | 105
101 | Cn1c(=N)c(S(=O)(=O)c2ccc(F)cc2)cc2c(=O)n3ccccc3nc21 | 72.9
102 | Cc1ccc(S(=O)(=O)C(C#N)c2nc3ccccc3nc2N2CCN(C)CC2)cc1 (configuration not stated) | 70
103 | COCCN(CCOC)Cc1c(O)ccc2c3c(c(=O)oc12)CCC3 | 91
104 | Cc1ccc(S(=O)(=O)c2cc3c(=O)n4ccccc4nc3n(Cc3ccco3)c2=N)cc1 | 72.9
105 | COC(=O)c1c(N(S(C)(=O)=O)S(C)(=O)=O)sc2c1CCN(c1ncc(C(F)(F)F)cc1Cl)C2 | 131
106 | CCOC(=O)c1cc2c(=O)n3ccccc3nc2n(Cc2ccco2)c1=NC(=O)c1ccc(OC)cc1OC | 70.6
107 | CCCn1c(=N)c(S(=O)(=O)c2ccccc2)cc2c(=O)n3ccccc3nc21 | 70.6
